Measurements: PubChem BioAssay AID504332 (National Center for Advancing Translational Sciences (NCATS), 2011)
Several values for one entry are separate records, joined by “and”; a condition that tells them apart may be missing. Equal values may be shown once. In all, about 350,000 compounds went through this assay and about 31,000 (8.9%) were called active. Inconclusive results, whose numbers are uncertain, are shown with a selection of clear calls. The call rests on the fitted dose curve; in most records, active means well fitted inhibition curve with a large enough effect; inconclusive means small, poorly fitted or top-dose-only effect; inactive means no such curve, though single readings can be large or run the other way. Where the call is inconclusive, the potency comes from a doubtful curve fit.

What follows are molecules tested against Histone-lysine N-methyltransferase EHMT2 (Homo sapiens) (UniProt Q96KQ7) (assay: qHTS Assay for Inhibitors of Histone Lysine Methyltransferase G9a). Settings: G9a H3K9 monomethylation, AlphaScreen, 2 h; activity, negative = inhibition: at 59 µM (top of the series) unless noted.
Outline: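 AlphaScreen detection with an anti-monomethyl H3K9 antibody quantified product after a 2 h room-temperature reaction containing 500 nM biotinylated H3K9 peptide, 20 µM SAM and 20 nM enzyme, which had been preincubated 15 min with compound.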
Further: nearly all actives have a fitted effect of over 75% in size.
On the % scale 0 is the no-effect control and ±100 the full control effect; potency means the concentration at half of the fitted maximal effect; tags describe the fitted curve by direction and shape.

UniProt Q96KQ7, sequence (Q96KQ7 whole entry, looked up): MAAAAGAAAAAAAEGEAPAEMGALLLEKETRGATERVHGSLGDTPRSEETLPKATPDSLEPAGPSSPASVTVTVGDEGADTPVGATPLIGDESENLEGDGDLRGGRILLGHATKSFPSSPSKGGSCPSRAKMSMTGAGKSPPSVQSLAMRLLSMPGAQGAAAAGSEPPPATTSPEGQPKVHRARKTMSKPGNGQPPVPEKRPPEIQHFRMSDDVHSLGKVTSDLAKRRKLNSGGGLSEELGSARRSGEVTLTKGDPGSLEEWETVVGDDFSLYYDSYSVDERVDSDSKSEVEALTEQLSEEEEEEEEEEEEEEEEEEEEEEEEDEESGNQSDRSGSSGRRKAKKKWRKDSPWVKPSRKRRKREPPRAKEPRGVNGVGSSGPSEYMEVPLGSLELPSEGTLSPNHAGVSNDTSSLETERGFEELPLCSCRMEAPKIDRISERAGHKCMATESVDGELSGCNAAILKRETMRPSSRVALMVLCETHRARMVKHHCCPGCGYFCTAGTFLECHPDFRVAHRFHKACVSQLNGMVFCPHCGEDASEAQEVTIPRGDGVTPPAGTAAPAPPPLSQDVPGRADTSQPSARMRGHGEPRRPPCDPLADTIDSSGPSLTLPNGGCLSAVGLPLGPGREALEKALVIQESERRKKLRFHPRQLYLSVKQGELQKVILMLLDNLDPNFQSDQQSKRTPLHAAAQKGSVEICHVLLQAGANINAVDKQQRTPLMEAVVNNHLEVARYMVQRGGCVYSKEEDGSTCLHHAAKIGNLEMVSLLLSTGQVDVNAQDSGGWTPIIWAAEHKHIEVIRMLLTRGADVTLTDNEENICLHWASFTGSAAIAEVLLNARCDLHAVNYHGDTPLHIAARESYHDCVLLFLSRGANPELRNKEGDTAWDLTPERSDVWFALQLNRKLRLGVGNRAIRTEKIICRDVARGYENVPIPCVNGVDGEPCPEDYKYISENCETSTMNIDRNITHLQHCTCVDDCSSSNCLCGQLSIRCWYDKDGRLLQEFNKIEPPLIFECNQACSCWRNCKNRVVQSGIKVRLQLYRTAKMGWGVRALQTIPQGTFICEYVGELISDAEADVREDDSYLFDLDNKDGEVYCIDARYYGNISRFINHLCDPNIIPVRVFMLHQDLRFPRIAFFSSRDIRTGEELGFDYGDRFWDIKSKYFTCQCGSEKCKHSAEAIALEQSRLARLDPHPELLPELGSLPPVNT

SMILES | Potency | activity, negative = inhibition
O=C(O)c1cc(-c2ccco2)nc2cc3ccccc3cc12 | active: 11.2 µM | –
O=C(NN1C(=O)/C(=C/C=C/c2ccccc2)SC1=S)c1ccncc1 | active: 44.7 µM | –
CC(=O)Oc1cc2oc(=O)c3c(c2cc1Cl)CCC3 | inconclusive: 17.8 µM [inhibitor, partial curve, poor fit] | –
O=C(CCCN1C(=O)NC2(CCCC2)C1=O)Nc1ccc(Cl)c(S(=O)(=O)N2CCOCC2)c1 | inconclusive: 89.1 µM [inhibitor, partial curve, poor fit] | –
CC(Oc1ccc(Cl)cc1)C(=O)Nc1nccs1 (stereo not given) | inconclusive: 3.98 µM [inhibitor, full curve, poor fit] | –
CCN(CC)c1ccc(NC(=O)CN2CCN(CC(=O)Nc3ccccc3OC)CC2)cc1 | active: 7.08 µM and active: 44.7 µM | –
Cc1ccc(NC(=O)CN(C)C(=O)COC(=O)CNS(=O)(=O)c2ccc(F)c(F)c2F)cc1 | inconclusive: 1.26 µM [inhibitor, full curve, poor fit] | –
CCCCN(C1CCS(=O)(=O)C1)S(=O)(=O)c1ccc(C(C)C)cc1 (stereo not given) | inactive | –
COc1ccc(N2CCCC2)c(NC(=O)COc2ccccc2)c1 | active: 39.8 µM | –
Nc1sccc1C(=O)c1ccccc1 | active: 44.7 µM | –
COc1ccc(NC(=O)c2ccccc2NS(=O)(=O)c2ccc(C)cc2)c([N+](=O)[O-])c1 | active: 3.16 µM | –
CN(c1ccccc1C(=O)O)S(=O)(=O)c1ccc2[nH]c(=O)[nH]c2c1 | inactive | –
Cc1nn(Cc2ccc(F)cc2)c(C)c1NC(=O)c1cc(-c2ccco2)on1 | active: 56.2 µM | –
NC(=O)[C@@H]1CCCNc2c(F)cc([N+](=O)[O-])cc2C(=O)N[C@@H](CO)C(=O)N[C@@H](Cc2ccc(O)cc2)C(=O)N1 | inconclusive: 79.4 µM [inhibitor, partial curve, poor fit] | –
O=C(C1COc2ccccc2O1)N1CCc2ccccc21 (stereo not given) | active: 50.1 µM | –
CCN(CCCNC(=O)CNC(=O)Cn1cnc2ccccc2c1=O)c1cccc(C)c1 | inconclusive: 3.55 µM [inhibitor, single point] | –
Cc1cccc(CN2CCSCC2)c1 | inconclusive: 28.2 µM [inhibitor, full curve, poor fit] | –
O=C(CN1CCCCC1)NCCNc1ccc(C(F)(F)F)cc1[N+](=O)[O-] | inconclusive: 39.8 µM [inhibitor, partial curve, poor fit] | –
CCOCCCNC(=O)c1c[nH]c2ccc(S(=O)(=O)Nc3cccc(Cl)c3C)cc2c1=O | inconclusive: 28.2 µM [inhibitor, single point] | –
COc1ccc(C2C(C(=O)O)CC(=O)N2C2CCCCC2)cc1 (stereo not given) | inconclusive: 70.8 µM [inhibitor, single point] | –
O=C(CN(Cc1ccc(F)cc1)C(=O)c1csnn1)NCc1ccccc1 | inactive | –
Fc1ccc(Nc2ncnc3c2nc2n3CCCC2)cc1 | inactive | –
Cc1c(NC(=O)c2ccccc2)cc(C(C)C)c(O)c1S(=O)(=O)c1ccc(Cl)cc1 | inactive | –
CC(C)CSC1=NSC2=NC(=O)/C(=C\c3cccs3)C(=N)N12 | active: 44.7 µM | –

SMILES | Potency | activity, negative = inhibition
CCOC(=O)c1c(C)[nH]c(C(=O)C(C)OC(=O)c2ccc(NC(=O)CC#N)cc2)c1C (stereo not given) | – | inactive: 10.5% [at 12.7 µM]
Cc1ccc(C)c(NC(=O)C(Cc2ccccc2)N2Cc3ccccc3C2=O)c1 (stereo not given) | inactive | –
COc1ccc(NC(=O)CSCC(=O)Nc2cc(Cl)ccc2N2CCOCC2)cc1 | inconclusive: 89.1 µM [inhibitor, partial curve, poor fit] | –
COCc1cc(C)nc2sc3c(=O)n(Cc4ccco4)nnc3c12 | inconclusive: 100 µM [inhibitor, single point] | –
CN(C(=O)CSc1ncnc2sccc12)C1CCS(=O)(=O)C1 (stereo not given) | – | inconclusive: -56.2% [inhibitor] [at 2.33 µM]
Cc1ccc(NC2c3ncccc3C(=O)N2Cc2ccc(F)cc2)cc1 (stereo not given) | inconclusive: 79.4 µM [inhibitor, partial curve, poor fit] | –
O=C(CSc1nc(-c2ccccc2)c(-c2ccccc2)o1)N1CCOCC1 | inconclusive: 70.8 µM [inhibitor, partial curve, poor fit] | –
O=C1CC(NS(=O)(=O)c2ccc([N+](=O)[O-])cc2)CN1c1ccc2c(c1)OCCO2 (stereo not given) | inconclusive: 89.1 µM [inhibitor, single point] | –
COc1ccc(CCNC(=O)C23CN(Cc4ccccc4)CC2C(c2cccc([N+](=O)[O-])c2)=NO3)cc1 (stereo not given) | – | inconclusive: -65.8% [inhibitor]
Cc1ccc(NC(=O)NNc2cccc(Cl)n2)cc1 | inconclusive: 89.1 µM [inhibitor, single point] | –
O=C(CCS(=O)(=O)c1ccccc1)Nc1ccc(Cl)cn1 | active: 44.7 µM | –
O=C(CCCn1c(=S)[nH]c2ccccc2c1=O)NCCSCc1ccccc1 | inactive | –
COc1ccc(N2C(=O)CC(N3CCN(c4ccccc4OC)CC3)C2=O)cc1 (stereo not given) | inconclusive: 89.1 µM [inhibitor, single point] | –
Cc1cccc(C)c1OCCCN1CCCC1 | active: 10 µM | –
CN(C)c1ccc(-c2nccc(NCc3cccs3)n2)cc1 | – | inactive: 17% [at 0.501 µM]
CC(=O)c1cc(C#N)c(SCc2ccncc2)nc1C | inconclusive: 79.4 µM [inhibitor, single point] | –
CN(c1ccccc1)C(c1ccc(F)cc1)c1nnnn1CC1CCCO1 (stereo not given) | inconclusive: 79.4 µM [inhibitor, single point] | –
C[C@@H]1CC[C@H](O)/C=C/C(=O)O[C@H](C)CC[C@H](O)/C=C/C(=O)O1 | – | inconclusive: -65.3% [inhibitor]
C=CCn1c(NCc2ccc(N(C)C)cc2)nc2ccccc21 | – | inconclusive: -86.4% [inhibitor]
Cc1cc(C(=O)CN2C(=O)C(=O)N(C3CCCC3)C2=O)c(C)n1-c1ccc(F)cc1 | inconclusive: 39.8 µM [inhibitor, partial curve, poor fit] | –
C/C(=N\NC(=O)COc1ccc(C)cc1C(C)C)c1ccc(-n2ccnc2)cc1 | inconclusive: 25.1 µM [inhibitor, single point] | –
Cc1ccc(Cn2nnc3c(=O)[nH]c(C(=O)NCc4ccco4)nc32)cc1 | inconclusive: 44.7 µM [inhibitor, partial curve] | –
COc1ccc(N2CCN(C(=O)c3ccc4nc(N5CCC(C)CC5)sc4c3)CC2)cc1 | inconclusive: 3.55 µM [inhibitor, partial curve, poor fit] | –
Cc1ccc(Cl)cc1N(C)C(=O)c1cnc(N2CCOCC2)c2ccccc12 | inactive | –

SMILES | Potency | activity, negative = inhibition
CC(Sc1ccccc1)C(=O)NN=C1CCN(C)CC1 (stereo not given) | inactive | –
CC1CC(C)CN(c2oc(-c3ccco3)nc2C#N)C1 (stereo not given) | inconclusive: 20 µM [inhibitor, single point] | –
COc1ccc(N2CCN(C(c3ccccc3OC)c3nnnn3Cc3ccco3)CC2)cc1 (stereo not given) | inconclusive: 3.55 µM [inhibitor, partial curve, poor fit] | –
COC(=O)c1sc(NC(=O)CSc2nnnn2-c2ccc(C)cc2C)nc1C | inconclusive: 79.4 µM [inhibitor, single point] | –
Cc1cccc(C)c1NC(=O)CNC(=O)C(C)N(C)CC(=O)Nc1ccc(F)cc1 (stereo not given) | inconclusive: 10 µM [inhibitor, partial curve, poor fit] | –
COc1ccc2nc(N3CCN(C(=O)C4CC4)CC3)sc2c1 | inactive | –
COc1ccc(NC(=O)N2CCc3c([nH]c4ccc(OC)cc34)C2c2ccc(OC)cc2)cc1 (stereo not given) | inconclusive: 3.16 µM [inhibitor, full curve, poor fit] | –
CCCOC(=O)Nc1cc(OC)ccc1[N+](=O)[O-] | inconclusive: 44.7 µM [inhibitor, partial curve, poor fit] | –
CCSc1nnc(NC(=O)c2cc(C)on2)s1 | – | inconclusive: -58.7% [inhibitor]
CCOc1ccc2nc3sc(C(=O)N4CCOCC4)c(N)c3cc2c1 | – | inconclusive: -66.4% [inhibitor] [at 12.7 µM]
OCC1(Cc2ccccc2)CCN(Cc2ccc(-c3ccco3)cc2)CC1 | inconclusive: 50.1 µM [inhibitor, partial curve] | –
CC(NC(=O)c1sc2ncccc2c1-n1cccc1)c1ccccc1 (stereo not given) | inactive | –
O=C(Nc1cccnc1)Nc1ccccc1Cl | – | inactive: 26.9% [at 12.7 µM]
COc1ccccc1CNC(=O)/C=C/C(=O)O | inconclusive: 39.8 µM [inhibitor, partial curve, poor fit] | –
CC(=O)N1CCCc2ccc(NS(=O)(=O)c3ccccc3)cc21 | inactive | –
CCC(C(=O)Nc1ccc2c(c1)OCCO2)c1ccccc1 (stereo not given) | inconclusive: 35.5 µM [inhibitor, full curve] | –
c1cncc(CNc2ncnc3sc4c(c23)CCC4)c1 | inconclusive: 39.8 µM [inhibitor, partial curve, poor fit] | –
O=C(Nc1ccccc1-c1ccccc1)c1ccc(Cl)c([N+](=O)[O-])c1 | inconclusive: 7.94 µM [inhibitor, partial curve] | –
CC(=O)NC(=S)Nc1ccc(NC(=O)c2cccnc2Cl)cc1 | inconclusive: 70.8 µM [inhibitor, partial curve] | –
OCCCn1c(-c2ccccc2)n[nH]c1=S | active: 7.94 µM | –
Nc1cc(-c2ccc(Br)cc2)nn1Cc1ccccc1 | inconclusive: 39.8 µM [inhibitor, partial curve] | –
COc1cc(/C=C/C(=O)N[C@@H](Cc2c[nH]c3ccccc23)C(=O)O)ccc1O | inconclusive: 0.316 µM [inhibitor, partial curve, poor fit] | –
